# Source: PubChem BioAssay AID602342 (Broad Institute, 2012)
# The whole screen tested about 340,000 compounds, of which about 1,000 (0.29%) were called active. Inconclusive means that the source gave no clear call. Such entries were picked first, then a sample of the others.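 Rule for the calls: active = mean replicate activation score at least 90 and every replicate individually at or above 90; inconclusive = only one of the two criteria met; inactive = neither criterion met.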
# Assay: miR-122 Renilla sensor signal increase in Huh7, primary screen, miR-122 inhibitor project, cell-based, single point, plate reader (AID 602342);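 note: higher luciferase means less miR-122 activity so hits act as miR-122 inhibitors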
# Details: Huh7 miR-122 Renilla luciferase sensor, 48 h, hits give high values, neutral wells = 0, positive control = 100; at 12.5 µM unless noted
row,SMILES,activation (reporter increase)
1,O=C(c1ccc(NS(=O)(=O)c2ccc3c(c2)OCCO3)cc1)N1CCCCC1,inconclusive: 111%
2,Nc1c(C(=O)Nc2ccccc2)sc2ncc([N+](=O)[O-])cc12,inconclusive: 99.6%
3,Cc1ccccc1NS(=O)(=O)c1cc(C(=O)Nc2cccnc2)ccc1C,inconclusive: 122%
4,C[C@@]12C(=O)Nc3ccc(Cl)cc3C(=O)N1[C@H]1c3cc(Br)ccc3OC[C@@H]1[C@@H]2c1ccccc1,inactive: -11.9%
5,Cc1ccc(NS(=O)(=O)c2ccc(-c3cnc(C4CC4)o3)cc2)cc1,inconclusive: 125%
6,CCC(=O)Nc1ccc(S(=O)(=O)NCCc2ccccc2)cc1,inconclusive: 111%
7,CC(=O)N1[C@H](CNC(=O)CN(C)C)[C@@H](c2ccc(C3=CCCCC3)cc2)[C@@H]1CO,inconclusive: 292% [at 16.7 µM]
8,CN(C)Cc1cccc(-c2ccccc2)c1O,inconclusive: 92.1%
9,CC1=CC2=NC(=O)/C(=C\c3cccn3CCOc3ccc(C)c(C)c3)C(=N)N2O1,inconclusive: 96.7%
10,COc1ccc(C(=O)NC(=S)Nc2ccc(S(=O)(=O)Nc3cc(OC)ncn3)cc2)cc1,inconclusive: 91.5%
11,CCOC(=O)/C(=N/Nc1ccc(Cl)cc1)S(=O)(=O)c1ccccc1,inconclusive: 93.8%
12,C[C@@H]1CN([C@@H](C)CO)S(=O)(=O)c2ccc(C#CCN(C)C)cc2O[C@@H]1CN(C)Cc1ccc2c(c1)OCO2,inconclusive: 92.9% [at 16.7 µM]
13,COc1ccc(S(=O)(=O)Nc2cc3c(C(C)=O)c(C)oc3c3ccccc23)cc1,inconclusive: 91.1%
14,CCCNC(=O)C[C@@H]1CC[C@H]2[C@H](COc3ccc(NC(=O)c4ccc5c(c4)OCO5)cc3C(=O)N2C)O1,inconclusive: 102% [at 16.7 µM]
15,Cc1cccc(NC(=S)N(Cc2ccc(Br)cc2)Cc2ccc(C(=O)O)cc2)c1,inactive: 0.815%
16,Cc1noc(C)c1S(=O)(=O)Nc1ccc2c(c1)C(=O)N([C@@H](C)CO)C[C@H](C)[C@@H](CN(C)S(C)(=O)=O)O2,inactive: -5.03% [at 16.7 µM]
17,COc1ccc(NC(=O)Nc2cccc3c2O[C@H](CN(C)Cc2ccc4c(c2)OCO4)[C@@H](C)CN([C@@H](C)CO)C3=O)cc1,inconclusive: 95.7% [at 16.7 µM]
18,Cc1ccc(CN2C(=O)C(C)(C)Oc3ccc(C(=O)N4CCCCC4)cc32)cc1,active: 318%
19,Nc1c(S(=O)(=O)c2cc(Cl)ccc2Cl)c2nc3ccccc3nc2n1CCN1CCOCC1,inconclusive: 115%
20,COc1cccc(C(=O)O/N=C(\N)c2ccccn2)c1,inactive: -1.15%
21,C[C@H](CO)N1C[C@H](C)[C@@H](CN(C)Cc2ccc3c(c2)OCO3)Oc2c(NC(=O)NC3CCCCC3)cccc2C1=O,inconclusive: 94.9% [at 16.7 µM]
22,COc1ccccc1-c1cnc2c(c1)C(=O)N([C@@H](C)CO)C[C@@H](C)[C@@H](CN(C)Cc1ccc(C(=O)O)cc1)O2,inconclusive: 111% [at 16.7 µM]
23,C[C@H]1CN([C@@H](C)CO)C(=O)c2cc(C#CC(C)(C)O)cnc2O[C@H]1CN(C)Cc1cncnc1,inconclusive: 109% [at 16.7 µM]
24,O=C(Nc1ccc([N+](=O)[O-])cc1)Nc1ccon1,inconclusive: 96.6%
25,COc1ccc(OC)c(S(=O)(=O)NCc2ccccc2)c1,inconclusive: 93.3%
26,CCOCC(=O)Nc1c(C(=O)N2CCN(c3ncccn3)CC2)oc2ccccc12,active: 125%
27,O=c1c2ccccc2nnn1CSc1nnc(C2COc3ccccc3O2)n1-c1ccccc1 (centres undefined),inconclusive: 91.5%

row,SMILES,activation (reporter increase)
1,C[C@@H]1CN([C@@H](C)CO)C(=O)c2cccc(NC(=O)C3CC3)c2O[C@H]1CN(C)Cc1ccc(C(F)(F)F)cc1,inactive: 64% [at 16.7 µM]
2,COc1ccc(S(=O)(=O)Nc2ccc3c(c2)C(=O)N([C@H](C)CO)C[C@@H](C)[C@@H](CN(C)S(=O)(=O)c2ccc(C)cc2)O3)cc1,inconclusive: 100% [at 16.7 µM]
3,CC(=O)c1cccc(NS(=O)(=O)c2cc(-c3cnc(C4CC4)o3)ccc2C)c1,inconclusive: 91.6%
4,COc1cc(OC)c(NS(=O)(=O)c2ccc(Cl)c(C(=O)OC(C)C(=O)N3CCCC3)c2)cc1Cl (centres undefined),inconclusive: 110%
5,O=C(NCCCN1CCN(Cc2ccccc2)CC1)c1nnc(Cc2c(F)cccc2Cl)o1,inconclusive: 103%
6,Fc1cccc(NC(=S)NC2CCCCCCC2)c1,inconclusive: 108%
7,N#Cc1c(-c2ccccc2)c(-c2ccccc2)nn(CC(=O)NNC(=O)Nc2ccccc2)c1=O,inconclusive: 104%
8,CC(C)c1ccc(S(=O)(=O)Nc2ccc(-n3cnnn3)cc2)cc1,active: 103%
9,CCCCN1C(=O)C(CC(=O)NCc2ccco2)CC(C(=O)N(C)C)=C1C (centres undefined),inactive: -2.41%
10,Cc1ccc(NS(=O)(=O)c2cc(OCC(N)=O)c(C)cc2Cl)cc1C,inconclusive: 94.9%
11,CCCCC(=O)Nc1ccc(C(=O)c2ccccc2)cc1,inactive: 0.913%
12,Cc1ccc(C)c(S(=O)(=O)NC2CCS(=O)(=O)C2)c1 (centres undefined),inconclusive: 99.8%
13,O=c1/c(=C/c2ccc(O)c([N+](=O)[O-])c2)sc2nc3ccccc3n12,inactive: 1.18%
14,Cc1cccc(NS(=O)(=O)c2ccc(C3CCCCC3)cc2)c1,inconclusive: 90.8%
15,CN(C)C(=S)Nc1ccc(Cl)cc1,inactive: 0.289%
16,O=C(/C=C/c1cccs1)c1cc(Br)ccc1OC(=O)N1CCOCC1,inconclusive: 106%
17,CC(C)(C)C(=O)Nc1cc(S(=O)(=O)Nc2ccc(Cl)cc2)ccc1Cl,inconclusive: 93.4%
18,COC(=O)c1[nH]c2c(c1C)C(=O)CC(c1ccccc1)C2 (centres undefined),inconclusive: 91.4%
19,COc1ccc(NS(=O)(=O)c2cc3c(cc2C)N(C)CCO3)c(OC)c1,inconclusive: 103%
20,C[C@@H]1CN([C@@H](C)CO)S(=O)(=O)c2ccc(/C=C/c3ccccc3)cc2O[C@@H]1CN(C)CC1CC1,inactive: -3.91% [at 16.7 µM]
21,C[C@@H]1CN([C@H](C)CO)C(=O)c2cccc(NC(=O)C3CCCCC3)c2O[C@@H]1CN(C)Cc1ccc(C(=O)Nc2ccccc2N)cc1,inconclusive: 98.9% [at 16.7 µM]
22,COC(=O)c1c(NC(=O)c2ccc(C)c(S(=O)(=O)Nc3ccccc3C)c2)sc2c1CCCC2,inconclusive: 90.3%
23,COc1ccccc1NS(=O)(=O)c1cc([N+](=O)[O-])ccc1N/N=C/c1c(C)[nH]c2ccccc12,inactive: 19.5%
24,COc1ccc(-c2c(O)c(C#N)c(-c3ccccc3)n(-c3ccc(OC)cc3)c2=O)cc1,active: 97.2%
25,C[C@H](CO)N1C[C@H](C)[C@H](CN(C)Cc2ccc(C(=O)Nc3ccccc3N)cc2)Oc2ccc(NS(=O)(=O)c3ccc(F)cc3)cc2CC1=O,active: 162% [at 16.7 µM]
26,Cc1cc(Br)ccc1NC(=S)NCCc1ccccc1,inconclusive: 95.6%
27,COc1cccc(NS(=O)(=O)c2c(C)cc(C)cc2C)c1,active: 399%
